Values marked as one replicate rest on one cluster of the flow cell; about a third of the high ones do not repeat.
Tested on: ATP
Assay: switch fluorescence ratio, 500 uM ATP over buffer (Cy3 cluster intensity, sum of 5 cycles each) (fold (ratio)); higher = stronger signal-on switching upon ATP binding; sequences stand for … in TCGTCGGCAGCGTCAGATGTGTATAAGAGACAGTTTTTTTTTTTTTTTTTTTTTTTTT…TC
Details: aptamer strand: ATP DNA aptamer (quencher-CACCTGGGGGAGTATTGCGGAGGAAGG + anchor), 100 nM annealed; ATP concentration: 500 uM; one replicate
Outline: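 Clusters with intensities outside 100-1000 RFU were excluded. The remaining Cy3-labelled switching-strand clusters on a modified Illumina MiSeq flow-cell had been annealed to 100 nM quencher-labelled ATP aptamer and imaged in selection buffer, then after 15 min with 500 uM ATP at 22 °C, for five cycles separated by NaOH stripping and re-annealing. The fluorescence ratio, averaged per switch-domain sequence, is each cluster's summed target-cycle Cy3 intensity over its summed buffer-cycle Cy3 intensity.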
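Further: ATP exposure 15 min at 22 °C before imaging.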

Row | Sequence | switch fluorescence ratio
1 | TCTCTGACAT | 1.18
2 | TCTCTGATT | 1.03
3 | TCTCTGGACG | 1.02
4 | TCTCTGTCAC | 1.49
5 | TCTCTTATCC | 1.04
6 | TCTCTTTGGG | 1.11
7 | TCTGAACCCT | 1.06
8 | TCTGACGTGT | 1.03
9 | TCTGACTCGC | 1.78
10 | TCTGACTGGT | 1.22
11 | TCTGATCGCT | 1.69
12 | TCTGATGTCG | 0.988
13 | TCTGATTAAC | 0.992
14 | TCTGCAATCA | 4.08
15 | TCTGCACGTT | 1.06
16 | TCTGCGCGA | 1.82
17 | TCTGCTCGCA | 0.993
18 | TCTGGAAGCA | 1.32
19 | TCTGGATTAA | 0.955
20 | TCTGGGCCGC | 1.09
21 | TCTGGTTCGG | 0.96
22 | TCTGTAGAAT | 1.15
23 | TCTGTAGTTC | 1.12
24 | TCTGTATTCT | 0.982
25 | TCTGTCTACC | 0.983
26 | TCTGTGAGAG | 0.993

Row | Sequence | switch fluorescence ratio
27 | TCTGTGCGGA | 0.96
28 | TCTGTGCTTA | 1.06
29 | TCTGTTAAG | 0.964
30 | TCTGTTAGCC | 1.02
31 | TCTGTTAGG | 0.969
32 | TCTGTTCATA | 1.02
33 | TCTGTTCGGC | 0.949
34 | TCTGTTGGGA | 0.988
35 | TCTGTTTGAT | 0.964
36 | TCTTAACCC | 1.04
37 | TCTTAAGCTG | 1.06
38 | TCTTAGTAAT | 1.02
39 | TCTTAGTTCT | 0.979
40 | TCTTATTCTA | 1.01
41 | TCTTCATACT | 1.07
42 | TCTTCATCCC | 1.18
43 | TCTTCCTAGC | 1.92
44 | TCTTCGAGGA | 1.02
45 | TCTTCGATCG | 0.977
46 | TCTTCGCGTC | 1.3
47 | TCTTGAGACT | 1.04
48 | TCTTGGAAGG | 0.972
49 | TCTTGGATG | 0.974
50 | TCTTGGGAGG | 1.05
51 | TCTTGGGTA | 1.01
52 | TCTTGGGTGA | 1.03

Row | Sequence | switch fluorescence ratio
53 | TCTTGTCACT | 1.05
54 | TCTTTAACGA | 1.04
55 | TCTTTAAGTG | 0.984
56 | TCTTTAGAGG | 0.995
57 | TCTTTAGAGT | 0.958
58 | TCTTTAGGTT | 1.01
59 | TCTTTGATGC | 1.15
60 | TCTTTGTTTG | 1.02
61 | TCTTTTCGCT | 0.981
62 | TCTTTTTCAA | 1.04
63 | TGAAAAAAGT | 1
64 | TGAAAACCCC | 1.49
65 | TGAAACGGCT | 0.913
66 | TGAAATCTCC | 2.37
67 | TGAAATTGTC | 1.04
68 | TGAACCAAAT | 1.02
69 | TGAACCGGT | 1.04
70 | TGAACGCCAG | 1.08
71 | TGAACGGGCT | 1.01
72 | TGAACGGGGT | 0.987
73 | TGAACGTGTC | 0.96
74 | TGAACTTTAA | 1.03
75 | TGAACTTTGG | 0.945
76 | TGAAGAAATC | 1.11
77 | TGAAGAC | 1.14
78 | TGAAGACAGT | 0.976

Row | Sequence | switch fluorescence ratio
79 | TGAAGATGGT | 1.01
80 | TGAAGGAATC | 1.03
81 | TGAAGGGTGT | 0.967
82 | TGAAGGTTAG | 0.954
83 | TGAAGGTTG | 0.977
84 | TGAAGTCATG | 0.992
85 | TGAAGTGCTA | 1.04
86 | TGAAGTGTGG | 1.04
87 | TGAATAGGCT | 0.999
88 | TGAATGCTAG | 1.01
89 | TGAATGGGAA | 0.994
90 | TGAATTCACG | 1.04
91 | TGAATTGATT | 0.941
92 | TGACAAAAAA | 0.968
93 | TGACATGTGG | 0.983
94 | TGACCACTCT | 1.04
95 | TGACCCAAAC | 1.11
96 | TGACCCACGA | 1.42
97 | TGACCCCAAG | 0.978
98 | TGACCCCGTG | 1.04
99 | TGACCCGATT | 0.955
100 | TGACCCGTG | 1.02
101 | TGACCCTTGG | 1.06

— the supplement of paper PMC10126150
